Experimental findings from patent US20230340081A1 (Hoffmann-La Roche, published 2023) are described below.

What all share (assay): flow cytometry, S-HBs-transfected 293-F cells
Test [1] deals with T1, consensus S-HBs protein of HBV genotype A (ConsHBAg_A) (hepatitis B virus genotype A (consensus)).
T1 construct: also called genotype A S-HBs

Test [2] deals with T2, consensus S-HBs protein of HBV genotype F (ConsHBAg_F) (hepatitis B virus genotype F (consensus)).
T2 construct: also called genotype F S-HBs

Test [3] addresses T3, consensus S-HBs protein of HBV genotype B (ConsHBAg_B) (hepatitis B virus genotype B (consensus)).
T3 construct: also called genotype B S-HBs

Test [4] addresses T4, consensus S-HBs protein of HBV genotype H (ConsHBAg_H) (hepatitis B virus genotype H (consensus)).
T4 construct: also called genotype H S-HBs

Test [5] deals with T5, consensus S-HBs protein of HBV genotype D (ConsHBAg_D) (hepatitis B virus genotype D (consensus)).
T5 construct: also called genotype D S-HBs; ConsD S-HBs

For test [6], the target named is T6, consensus S-HBs protein of HBV genotype C (ConsHBAg_C) (hepatitis B virus genotype C (consensus)).
T6 construct: also called genotype C S-HBs

Test [7] deals with T7, consensus S-HBs protein of HBV genotype G (ConsHBAg_G) (hepatitis B virus genotype G (consensus)).
T7 construct: also called genotype G S-HBs

B1: Bv6.172 (antibody)
heavy: EVQLVQSGAAVRKPGESLRISCQASGFSFTNYWITWVRQRPGKGLEWMGRIDTRDSYTNYSPSFQGHVTISIDRSINTAYLQWSSLKASDTAMYYCARLSTTYPLNYYGMDVWGQGTTVTVSSASTKGPSVFPLAPSSKSTSGGTAALGCLVKDYFPEPVTVSWNSGALTSGVHTFPAVLQSSGLYSLSSVVTVPSSSLGTQTYICNVNHKPSNTKVDKRV[human IgG1 Fc not spelt out]
light: QSVLTQPPSVSGTPGQRVTISCTGSSSNIGANYDVNWYQQLPGTAPKVLIYGNTNRPSGVPDRFSGSKSGTSASLAITGLQAEDEADYYCQSYDTSLSGWVFGGGTKLTVLGQPKAAPSVTLFPPSSEELQANKATLVCLISDFYPGAVTVAWKADSSPVKAGVETTTPSKQSNNKYAASSYLSLTPEQWKSHRSYSCQVTHEGSTVEKTVAPTECS
As for B1, the “% of bound S-HBs-expressing cells” value in test [1] came out at 83%; in test [2], 72%; in test [3], 71%; in test [4] it was 79%; in test [5] it was 78%; in test [6], 76%. The “% of bound S-HBs-expressing cells” value in test [7] amounted to 82%.
